Source: the supplement of paper PMC11417369
± gives the standard deviation of the averaged measurements. Some of the results follow.

Test system: PfAP2-LT AP2 domain (GST-tagged)
Assay: gcPBM binding intensity (ln(normalized median fluorescence intensity)); higher = stronger DNA binding
In short: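 Using an Agilent 4 × 180k array, primer-extended double-stranded 36-bp intergenic genomic probes and negative controls were exposed for 1 h to GST-fused P. falciparum DNA-binding domains expressed in E. coli. Binding was carried out in 1× PBS with 1% milk, 0.2 mg/ml BSA, 0.5% salmon testes DNA and 0.03% Triton X-100, and protein was detected with Alexa488 anti-GST antibody and a 488 nm scan. Binding intensity is the highest Masliner-normalised natural-log median intensity across replicate spots of either probe orientation.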

| Sequence | gcPBM binding intensity (ln) |
| --- | --- |
| AGTAGTCTGGAGAAGAGTACATAGTATCTGGTAACC [XGTACX_site2043] | 8.91 ± 0.46 |
| GTATGGCGTATCATATGTACTAAAAAAAAATAAAAA [XGTACX_site5101] | 8.66 ± 0.55 |
| TATTTATCATCATATTGTACATTATATATATAAAAT [XGTACX_site6675] | 8.63 ± 0.47 |
| AATAAAAAAATGTCACGTACTTATTTTATTAAACCT [XGTACX_site3031] | 8.59 ± 0.33 |
| AAGTATGTCGACTGTTGTACTTTTATCATTTATTAT [XGTACX_site1129] | 8.93 ± 0.45 |
| ATATACTATGATAATACATGCGATAATACATTTTTA [TGCATGCA_site387] | 8.71 ± 0.33 |
| ATCTGTCGACAGGACAGTACACAGTAGCCAGTAACT [XGTACX_site2001] | 8.95 ± 0.52 |
| TTATATGCTCAATGTTGTACATGTAGATATATATAT [XGTACX_site8211] | 8.82 ± 0.31 |
| ATATATATATATAGTGCACACATATAAAATATATAT [CACACA_site8884] | 9.24 ± 0.37 |
| AAAAAAAACGAACACACACACATACAAAATCTATAT [CACACA_site6795] | 10.1 ± 0.22 |
| TTAAAAGAATATAATGCACACATTATTTTATTTTAT [CACACA_site3772] | 8.67 ± 0.49 |
| TATACGAAATTGTGCACACATATATTTATGTATGTA [CACACA_site1509] | 9.18 ± 0.34 |
| AATACATAATAACATGTACACACATTCTTCTATAAA [CACACA_site9344] | 9.06 ± 0.44 |
| TACCCACGTATATATATACACACTAATATACACCCA [CACACA_site9381] | 9.13 ± 0.28 |
| ATTTATATATAATTTTGTACGAAAAAAATAAGGTAT [XGTACX_site3578] | 8.62 ± 0.35 |
| TATATATTTATTAAATGTACATAACAAAAATGGTAT [XGTACX_site3577] | 8.69 ± 0.44 |
| AAATAAAGTAAAATATGTACATAAATTAAAACACAT [XGTACX_site8539] | 9.2 ± 0.42 |
| TGCATACATAAATGTATATATTAATATATATCATAT [GTGCAC_negctrl_site252] | 8.71 ± 0.39 |
| TTAAATGAAAAAATATGTACGTATAATAAGAAATAT [XGTACX_site6619] | 8.87 ± 0.43 |
| GTATGAGTCGTAGAGTGTACTCTGGAGAAAACTACA [XGTACX_site4942] | 8.79 ± 0.5 |
| TATTTTTTCTTAAACACACACATATATATATAGAAT [CACACA_site2836] | 8.91 ± 0.39 |
| TTTTTTCTTAGTTATACATGCAAAATAAATAAATAA [TGCATGCA_site410] | 8.18 ± 0.43 |

| Sequence | gcPBM binding intensity (ln) |
| --- | --- |
| TATAACGCTTGCAGCTGTACAAAAATAATCAAACTG [XGTACX_site2464] | 8.66 ± 0.43 |
| AATGCTATCATTAATGCACACATTTAAACTTAATAT [CACACA_site5878] | 8.91 ± 0.4 |
| TTTTTTTTTTTGTTCACACATATACTTTTATTTTGG [CACACA_site4250] | 8.81 ± 0.49 |
| GGAAACCTTTTTTTTACACACAATATATTAATACTT [CACACA_site1403] | 9.01 ± 0.47 |
| TTTGTTTTAAATATTATACACACGTAAAAGTAGAAT [CACACA_site214] | 8.71 ± 0.3 |
| CAAGAAAATGGACACACACACATATATATATATATA [CACACA_site6010] | 10.37 ± 0.092 |
| CAAATTTAAAAAAAATCACACACAGAAAAAAAAAAA [CACACA_site8728] | 9.06 ± 0.47 |
| ATATAAATACGGTGTGCACACACATAATATATATAT [CACACA_site2271] | 9.8 ± 0.33 |
| TACACCCTATTTTTATGTACTTATTTGATTTACACA [XGTACX_site8172] | 8.97 ± 0.52 |
| TGTATACGCATATGTACACACATATATATGTATATG [CACACA_site3087] | 9.14 ± 0.34 |
| GTGTAATTATCAGCATAAATATGGTACATACATAAA [CACACA_negctrl_site323] | 8.96 ± 0.49 |
| AAAAGATTTATACATACACACATATTATAGTCACAT [CACACA_site7701] | 9.21 ± 0.38 |
| CAAAATATAGATGACACACACAAAAAAAGTATATTA [CACACA_site6848] | 9.47 ± 0.63 |
| AAGCTTCCTTAATATACACACATATCTGAGTATATT [CACACA_site5939] | 9.11 ± 0.31 |
| AGATAAAAAAAGTACACACACACATATATATATATA [CACACA_site3072] | 10.02 ± 0.014 |
| CATTTACCCTTATTAACACACAAAATATAATACGCT [CACACA_site2565] | 8.98 ± 0.49 |
| AAAATTATAATATATACACACATATATATATTAAAT [CACACA_site473] | 8.88 ± 0.35 |
| ATAGAAAGTGACAATTGTACATACATATTATATATA [XGTACX_site4390] | 9.01 ± 0.54 |
| TTCTTGGAATACAAGTGTACTTTATTATTATTATTA [XGTACX_site5997] | 8.65 ± 0.49 |
| AAAAAAAAAAAAAAAAAAAAATTTCAATTATATTGA [GTGCAC_negctrl_site642] | 8.49 ± 0.15 |
| TTTTTTTTTGCCTACTGTACTATTTTTGAGCTCACC [XGTACX_site7967] | 8.94 ± 0.58 |
| ACGTAAAATTATTATTGTACATGTAAATAATTTGGA [XGTACX_site8154] | 8.97 ± 0.5 |
